Values joined by “and” are separate entries in the source; they are usually repeats but may differ in a detail not shown here. Equal values may be shown once. About 5,000 (1.2%) of roughly 410,000 compounds were called active. This list was built around the results that the source calls inconclusive (neither active nor inactive); the mix of calls is not that of the screen. Calls follow the shape of the dose curve; as a rule, active = well fitted inhibition curve with a large enough effect; inconclusive = small, poorly fitted or top-dose-only effect; inactive = no such curve, though single readings can be large or run the other way. Potencies beside an inconclusive call are fits to weak or partial responses and may not hold up.
Assay: qHTS for Inhibitors of TGF-b; also: nearly all actives have a fitted effect of over 65% in size
Settings: HepG2 CAGA-GFP TGF-b/SMAD3 reporter, GFP fluorescence, 18 h, TGF-beta stimulated, 500 pg/mL final; series mostly up to 46.1 µM; activity, negative = inhibition: at the top concentration
Procedure, shortened: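 Read-out: total well GFP (ex488/em500-530) summed from mean per-cell fluorescence. Cells: HEPG2 CAGA-GFP, 1% FBS DMEM, 18 h at 37 degrees C with 500 pg/mL final TGF-beta. Unstimulated wells served as the full-inhibition control; stimulated DMSO wells = 0%.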
% is scaled to controls: 0 for no effect and ±100 for the full control effect; potency is read from the fitted curve at half-maximal effect; tags tell the direction and shape of the fitted curve.

Compound | Potency | activity, negative = inhibition
COC(=O)CC1(C(=O)OC)Oc2ccc(Br)cc2C(=O)N1c1cc(Cl)c(Cl)cc1Cl (configuration not stated) | inconclusive: 17.8 µM [inhibitor, single point] | 
Cc1ccc(S(=O)(=O)CC(O)CN2CCCC2=O)cc1 (configuration not stated) | inconclusive: 15.8 µM [inhibitor, partial curve, poor fit] | 
CCOC(=O)C1(CC2CCCCO2)CCN(Cc2nc(-c3cccs3)oc2C)CC1 (configuration not stated) | inconclusive: 35.5 µM [inhibitor, single point] | 
O=C(O)CC(NC(=O)c1ccco1)c1ccco1 (configuration not stated) | inconclusive: 3.98 µM [inhibitor, single point] | 
CSc1nn(Cc2ccc(F)cc2)c(N)c1S(=O)(=O)c1ccc(Cl)cc1 | active: 10 µM | 
CCCN(CCC)CCCNC(=O)C1CCN(S(=O)(=O)c2cccc3nsnc23)CC1 | inconclusive: 2.82 µM [inhibitor, partial curve, poor fit] | 
CCOc1ccc(S(=O)(=O)N2CCN(c3ccc(C)cc3C)CC2)c2ccccc12 |  | inactive: -17.8%
COc1ccc(C(=O)Nc2ccc(N3CCN(C(=O)c4ccccc4C)CC3)cc2)cc1 |  | inactive: 0%
COc1ccccc1-c1sc2cc3c(cc2c1C#Cc1cncn1C)OCO3 | inconclusive: 35.5 µM [inhibitor, single point] | 
COc1ccc(C(=O)NCCS(=O)(=O)N2CCc3ccccc3C2)c(OC)c1 |  | inactive: -6.39%
Cc1cc(C(=O)N2CCc3ccccc3C2)no1 |  | inactive: -5.81%
COc1ccccc1OCCNC(=O)c1cccc(S(=O)(=O)N2CCN(Cc3ccccc3)CC2)c1 | inconclusive: 31.6 µM [inhibitor, single point] | 
Cc1cc(C)cc(NC(=O)c2ccc(Cn3nc(C)c(Cl)c3C)o2)c1 | inconclusive: 11.2 µM [inhibitor, partial curve, poor fit] | 
Cc1c(Cl)cccc1NC(=O)Nc1cc(C(C)(C)C)nn1C | inconclusive: 35.5 µM [inhibitor, single point] | 
COc1ccc(CC(=O)Nc2nc(-c3ccc(F)c(F)c3)cs2)cc1 | inconclusive: 35.5 µM [inhibitor, single point] | 
O=C(O)c1ccccc1C(=O)N1CCN(c2ccccc2)CC1 | inconclusive: 4.47 µM [inhibitor, single point] | 
CCc1ccccc1N1C(=O)N(C)c2ccccc2S1(=O)=O | inconclusive: 0.1 µM [inhibitor, full curve, poor fit] | 
N#CCCN(Cc1ccccc1)C(C(=O)NC1CCCCC1)c1ccnc2ccccc12 (configuration not stated) | inconclusive: 31.6 µM [inhibitor, single point] | 
CC(C)(C)C(=O)c1no[n+]([O-])c1/C(=N/O)C(C)(C)C | inconclusive: 35.5 µM [inhibitor, single point] | 
COc1cc(O)c(C(CC(=O)N2CCOCC2)c2ccc(N(C)C)cc2)c(OC)c1 (configuration not stated) | inconclusive: 35.5 µM [inhibitor, single point] | 
CC(C)CNC(=O)NC(=O)COC(=O)COc1ccc(Cl)cc1Cl | inconclusive: 35.5 µM [inhibitor, single point] | 

Compound | Potency | activity, negative = inhibition
COc1ccc(C(=O)Nc2c(N)nc(SCC(=O)Nc3ccc(NC(C)=O)cc3)[nH]c2=O)cc1 |  | inactive: 9.31%
O=S(=O)(c1ccc(Oc2ccc(Cl)cc2)nc1)N1CCOCC1 |  | inactive: -10.4%
CCc1cc2c(NCC3CCCO3)ncnc2s1 (configuration not stated) |  | inactive: -20.6%
Cc1ccc2nc(=O)c(NNc3ccccc3)cnc2c1 | inactive | 
CC(CNC(=O)Cn1ccc(N)nc1=O)c1ccccc1 (configuration not stated) |  | inactive: -1.11%
COc1ccc(/C=N/NC(=O)CCn2cnc3ccccc32)cc1 |  | inactive: -6.98%
CC(C)Oc1ccc(-c2nc(NCC3CCCO3)c3ccccc3n2)cc1 (configuration not stated) | inconclusive: 35.5 µM [inhibitor, single point] | 
CC(=O)N1CCc2cc(S(=O)(=O)NCCCN3CCC(C)CC3)ccc21 | inconclusive: 35.5 µM [inhibitor, single point] | 
O=C(CN1CCN(c2ccc(Cl)cc2)CC1)Nc1ccc(F)c(F)c1 | inconclusive: 28.2 µM [inhibitor, single point] and inconclusive: 35.5 µM [inhibitor, single point] | 
Cc1cc(C)cc(-n2ccnc2SCC(=O)Nc2ccc(C)c(Cl)c2)c1 | inconclusive: 35.5 µM [inhibitor, single point] | 
CCOc1ccccc1NC(=O)c1nnn(CC(=O)Nc2ccccc2CC)c1N | inconclusive: 2.82 µM [inhibitor, partial curve, poor fit] | 
COc1ccccc1C(=O)/C=C/c1ccc(N2CCCCC2)c([N+](=O)[O-])c1 | inconclusive: 22.4 µM [inhibitor, single point] | 
CC(C)c1ccc(S(=O)(=O)c2cnc(SCC(=O)Nc3ccc(F)cc3F)nc2N)cc1 | inconclusive: 35.5 µM [inhibitor, single point] | 
Cc1cccc(N2CCN(C(=O)c3ccc(CNc4c(N5CCC(C)CC5)c(=O)c4=O)cc3)CC2C)c1 (configuration not stated) | inconclusive: 22.4 µM [inhibitor, single point] | 
Cc1ccc(-c2nnn(CC(=O)N3CCN(c4ccccc4)CC3)n2)o1 |  | inactive: -2.49%
Cc1ccc(-n2nc3c(N4CCC(C(=O)NCCC(C)C)CC4)nnc(C)c3c2C)cc1 | inconclusive: 1.78 µM [inhibitor, full curve, poor fit] | 
Cc1oc(-c2ccccc2Cl)nc1CS(=O)CC(=O)NCc1ccc2c(c1)OCO2 (configuration not stated) | inconclusive: 0.1 µM [inhibitor, full curve, poor fit] | 
Cc1cc(C)n2c(Nc3cccc(C(F)(F)F)c3)c(-c3ccsc3)nc2n1 | inconclusive: 12.6 µM [inhibitor, partial curve, poor fit] | 
Cc1ccc(CNC(=O)c2cccc(OCc3c(C)noc3C)c2)cc1 | inconclusive: 12.6 µM [inhibitor, single point] | 
CCn1cc2nc(SCc3cccc(F)c3)n(CCc3ccccc3)c(=O)c2n1 | inconclusive: 17.8 µM [inhibitor, partial curve, poor fit] | 
CCOc1ccc(CCN2C(=S)N([C@@H](Cc3ccc(O)cc3)CN3CCC[C@@H]3CN3C(=S)NC[C@@H]3CC(C)C)C[C@@H]2Cc2ccccc2)cc1 | inconclusive: 3.55 µM [inhibitor, full curve] | 

From PubChem BioAssay AID588855 (National Center for Advancing Translational Sciences (NCATS), 2011)
